# Measurements taken from the supplement of paper PMC8728848.
# This is one part of the list.
# B1: LecRKVI.2 (protein)
# chain: RTTTNFAFRGFNGNQSKIRIEGAAMIKPDGLLRLTDRKSNVTGTAFYHKPVRLLNRNSTNVTIRSFSTSFVFVIIPSSSSNKGFGFTFTLSPTPYRLNAGSAQYLGVFNKENNGDPRNHVFAVEFDTVQGSRDDNTDRIGNDIGLNYNSRTSDLQEPVVYYNNDDHNKKEDFQLESGNPIQALLEYDGATQMLNVTVYPARLGFKPTKPLISQHVPKLLEIVQEEMYVGFTASTGKGQSSAHYVMGWSFSSGGERPIADVLILSELPPPPPNKAKKEGLNS
# What was measured:
# Experiment in all cases: glycan array binding signal (z-score within array); higher = stronger binding
# Details in all cases: glycan notation: IUPAC condensed, linker removed
# Gal(a1-3)Gal(b1-3)GlcNAc = molecular target: Gal(a1-3)Gal(b1-3)GlcNAc
# Outline: (§1)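 Glycan array binding is given as a within-array Z-score, which can be read as non-binding when negative. The arrays, 3228 of them, came from the Consortium for Functional Glycomics database and were retained only where the protein sequence was available. Z-scores were averaged across arrays of the same protein sequence at different concentrations or buffers and across linkers.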
# [1] = molecular target: Gal(a1-3)Gal(b1-3)GlcNAc(b1-2)Man
# Outline: as §1
# [2] = molecular target: Gal(a1-3)Gal(b1-3)GlcNAc(b1-2)Man(a1-3)[Gal(a1-3)Gal(b1-3)GlcNAc(b1-2)Man(a1-6)]Man(b1-4)GlcNAc(b1-4)GlcNAc
# Outline: as §1
# [3] = molecular target: Gal(a1-3)Gal(b1-3)GlcNAc(b1-3)GalNAc
# Outline: as §1
# [4] = molecular target: Gal(a1-3)Gal(b1-3)GlcNAc(b1-6)GalNAc
# Outline: as §1
# [5] = molecular target: Gal(a1-3)Gal(b1-3)[Fuc(a1-4)]GlcNAc(b1-2)Man(a1-3)[Gal(a1-3)Gal(b1-3)[Fuc(a1-4)]GlcNAc(b1-2)Man(a1-6)]Man(b1-4)GlcNAc(b1-4)GlcNAc
# Outline: as §1
# Gal(a1-3)Gal(b1-4)Glc = molecular target: Gal(a1-3)Gal(b1-4)Glc
# Outline: as §1
# Gal(a1-3)Gal(b1-4)GlcNAc = molecular target: Gal(a1-3)Gal(b1-4)GlcNAc
# Outline: as §1
# [6] = molecular target: Gal(a1-3)Gal(b1-4)GlcNAc(b1-2)Man
# Outline: as §1
# [7] = molecular target: Gal(a1-3)Gal(b1-4)GlcNAc(b1-2)Man(a1-3)[Gal(a1-3)Gal(b1-4)GlcNAc(b1-2)Man(a1-6)]Man(b1-4)GlcNAc(b1-4)GlcNAc
# Outline: as §1
# [8] = molecular target: Gal(a1-3)Gal(b1-4)GlcNAc(b1-3)GalNAc
# Outline: as §1
# [9] = molecular target: Gal(a1-3)Gal(b1-4)GlcNAc(b1-6)GalNAc
# Outline: as §1
# [10] = molecular target: Gal(a1-3)Gal(b1-4)[Fuc(a1-3)]GlcNAc
# Outline: as §1
# [11] = molecular target: Gal(a1-3)Gal(b1-4)[Fuc(a1-3)]GlcNAc(b1-2)Man(a1-3)[Gal(a1-3)Gal(b1-4)[Fuc(a1-3)]GlcNAc(b1-2)Man(a1-6)]Man(b1-4)GlcNAc(b1-4)GlcNAc
# Outline: as §1
# Gal(a1-3)GalNAc = molecular target: Gal(a1-3)GalNAc
# Outline: as §1
# [12] = molecular target: Gal(a1-3)[Gal(a1-4)]Gal(b1-4)GlcNAc
# Outline: as §1
# [13] = molecular target: Gal(a1-4)Gal(b1-3)GlcNAc(b1-2)Man(a1-3)[Gal(a1-4)Gal(b1-3)GlcNAc(b1-2)Man(a1-6)]Man(b1-4)GlcNAc(b1-4)GlcNAc
# Outline: as §1
# Gal(a1-4)Gal(b1-4)Glc = molecular target: Gal(a1-4)Gal(b1-4)Glc
# Outline: as §1
# Gal(a1-4)Gal(b1-4)GlcNAc = molecular target: Gal(a1-4)Gal(b1-4)GlcNAc
# Outline: as §1
# [14] = molecular target: Gal(a1-4)Gal(b1-4)GlcNAc(b1-2)Man(a1-3)[Gal(a1-4)Gal(b1-4)GlcNAc(b1-2)Man(a1-6)]Man(b1-4)GlcNAc(b1-4)GlcNAc
# Outline: as §1
# [15] = molecular target: Gal(a1-4)Gal(b1-4)GlcNAc(b1-3)Gal(b1-4)Glc
# Outline: as §1
# Gal(a1-4)GlcNAc = molecular target: Gal(a1-4)GlcNAc
# Outline: as §1
# Gal(a1-6)Glc = molecular target: Gal(a1-6)Glc
# Outline: as §1
# Gal(b1-2)Gal = molecular target: Gal(b1-2)Gal
# Outline: as §1
# Gal(b1-3)Gal = molecular target: Gal(b1-3)Gal
# Outline: as §1
# Gal(b1-3)Gal(b1-4)GlcNAc = molecular target: Gal(b1-3)Gal(b1-4)GlcNAc
# Outline: as §1
# Gal(b1-3)GalNAc = molecular target: Gal(b1-3)GalNAc
# Outline: as §1
# [16] = molecular target: Gal(b1-3)GalNAc(a1-3)[Fuc(a1-2)]Gal(b1-4)Glc
# Outline: as §1
# [17] = molecular target: Gal(b1-3)GalNAc(a1-3)[Fuc(a1-2)]Gal(b1-4)GlcNAc
# Outline: as §1
# Gal(b1-3)GalNAc(b1-3)Gal = molecular target: Gal(b1-3)GalNAc(b1-3)Gal
# Outline: as §1
# [18] = molecular target: Gal(b1-3)GalNAc(b1-3)Gal(a1-4)Gal(b1-4)Glc
# Outline: as §1
# [19] = molecular target: Gal(b1-3)GalNAc(b1-4)Gal(b1-4)Glc
# Outline: as §1
# [20] = molecular target: Gal(b1-3)GalNAc(b1-4)[Neu5Ac(a2-3)]Gal(b1-4)Glc
# Outline: as §1
# Gal(b1-3)GlcNAc = molecular target: Gal(b1-3)GlcNAc
# Outline: as §1
# [21] = molecular target: Gal(b1-3)GlcNAc(a1-3)Gal(b1-4)GlcNAc
# Outline: as §1
# [22] = molecular target: Gal(b1-3)GlcNAc(a1-6)Gal(b1-4)GlcNAc
# Outline: as §1
# Gal(b1-3)GlcNAc(b1-2)Man = molecular target: Gal(b1-3)GlcNAc(b1-2)Man
# Outline: as §1
# [23] = molecular target: Gal(b1-3)GlcNAc(b1-2)Man(a1-3)[Gal(b1-3)GlcNAc(b1-2)Man(a1-6)]Man(b1-4)GlcNAc(b1-4)GlcNAc
# Outline: as §1
binder,measurement,setting,value
B1,glycan array binding signal (z-score),Gal(a1-3)Gal(b1-3)GlcNAc,-0.36
same,glycan array binding signal (z-score),[1],-0.407
same,glycan array binding signal (z-score),[2],0.906
same,glycan array binding signal (z-score),[3],2.35
same,glycan array binding signal (z-score),[4],-0.02
same,glycan array binding signal (z-score),[5],2.66
same,glycan array binding signal (z-score),Gal(a1-3)Gal(b1-4)Glc,0.972
same,glycan array binding signal (z-score),Gal(a1-3)Gal(b1-4)GlcNAc,-0.382
same,glycan array binding signal (z-score),[6],-0.378
same,glycan array binding signal (z-score),[7],3.09
same,glycan array binding signal (z-score),[8],-0.278
same,glycan array binding signal (z-score),[9],-0.349
same,glycan array binding signal (z-score),[10],-0.338
same,glycan array binding signal (z-score),[11],0.465
same,glycan array binding signal (z-score),Gal(a1-3)GalNAc,-0.413
same,glycan array binding signal (z-score),[12],-0.211
same,glycan array binding signal (z-score),[13],5.85
same,glycan array binding signal (z-score),Gal(a1-4)Gal(b1-4)Glc,-0.229
same,glycan array binding signal (z-score),Gal(a1-4)Gal(b1-4)GlcNAc,-0.266
same,glycan array binding signal (z-score),[14],-0.337
same,glycan array binding signal (z-score),[15],-0.282
same,glycan array binding signal (z-score),Gal(a1-4)GlcNAc,-0.142
same,glycan array binding signal (z-score),Gal(a1-6)Glc,-0.426
same,glycan array binding signal (z-score),Gal(b1-2)Gal,-0.34
same,glycan array binding signal (z-score),Gal(b1-3)Gal,0.45
same,glycan array binding signal (z-score),Gal(b1-3)Gal(b1-4)GlcNAc,-0.182
same,glycan array binding signal (z-score),Gal(b1-3)GalNAc,-0.373
same,glycan array binding signal (z-score),[16],-0.383
same,glycan array binding signal (z-score),[17],-0.338
same,glycan array binding signal (z-score),Gal(b1-3)GalNAc(b1-3)Gal,-0.245
same,glycan array binding signal (z-score),[18],0.019
same,glycan array binding signal (z-score),[19],-0.346
same,glycan array binding signal (z-score),[20],-0.357
same,glycan array binding signal (z-score),Gal(b1-3)GlcNAc,-0.297
same,glycan array binding signal (z-score),[21],-0.234
same,glycan array binding signal (z-score),[22],-0.312
same,glycan array binding signal (z-score),Gal(b1-3)GlcNAc(b1-2)Man,-0.343
same,glycan array binding signal (z-score),[23],2.22
